Assay results as given in the supplement of paper PMC6206098.
± gives the uncertainty stated by the source. The sequences are guide strands of siRNAs; only the seed at positions 2 to 7 varies.

Assays:
[1] = system: 3LL; assay: cell viability relative to siNT1 control; higher = less toxic; conditions: concentration: 10 nM; 96 h; Mus musculus;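 also: Luminescence-based viability of cells reverse transfected in 384-well plates with lipid-complexed siRNAs built on a non-toxic 19mer backbone whose passenger strand carries 2′-O-methyl groups at positions 1 and 2, triplicates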
[2] = system: H460; assay: cell viability relative to lipid-only control; HeyA8 human ovarian and H460 human lung cancer; M565 mouse liver and 3LL mouse lung cancer; siNT1 is a non-toxic control siRNA; higher = less toxic; conditions: concentration: 10 nM; 96 h; Homo sapiens
[3] = system: HeyA8; assay: as above; conditions: concentration: 10 nM; 96 h; Homo sapiens
[4] = system: M565; assay: as above; conditions: concentration: 10 nM; 96 h; Mus musculus
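For cell viability relative to lipid-only control in this document: reverse lipid transfection in 384-well plates, in triplicate, of duplexes on a non-toxic 19mer backbone with passenger strand 2′-O-methylated at positions 1 and 2, luminescence viability read-out.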

Sequence | cell viability [1] [%] | cell viability [2] [%] | cell viability [3] [%] | cell viability [4] [%]
UUGUCUAACAUGUAAACCAAA | 87.9 ± 1.9 | 64.3 ± 6.9 | 82.5 ± 5 | 98.3 ± 13
UUGUCUCACAUGUAAACCAAA | 39 ± 1.4 | 80.7 ± 1.1 | 71.6 ± 6.3 | 100 ± 8.6
UUGUCUGACAUGUAAACCAAA | 55 ± 9.1 | 66.2 ± 8.7 | 91.7 ± 4.1 | 39.8 ± 2.7
UUGUCUUACAUGUAAACCAAA | 85.6 ± 2.8 | 67.8 ± 12 | 61.8 ± 2.8 | 103 ± 33
UUGUGAAACAUGUAAACCAAA | 87.3 ± 6.1 | 47.1 ± 9.2 | 48.3 ± 3.3 | 70.9 ± 6.9
UUGUGACACAUGUAAACCAAA | 9.43 ± 1.4 | 23.4 ± 1.9 | 28.9 ± 3.7 | 87.7 ± 7.2
UUGUGAGACAUGUAAACCAAA | 32.5 ± 5.1 | 54.2 ± 6.2 | 55 ± 2.2 | 11.4 ± 6.2
UUGUGAUACAUGUAAACCAAA | 43.2 ± 7.1 | 45.1 ± 4.3 | 62.2 ± 4.2 | 45.7 ± 2.8
UUGUGCAACAUGUAAACCAAA | 75.4 ± 4.7 | 92.2 ± 12 | 70.9 ± 6 | 82.1 ± 16
UUGUGCCACAUGUAAACCAAA | 35 ± 9.1 | 52.4 ± 5.6 | 48.6 ± 4.3 | 82.4 ± 7.5
UUGUGCGACAUGUAAACCAAA | 73.6 ± 15 | 70.1 ± 11 | 95.7 ± 6.4 | 90.7 ± 16
UUGUGCUACAUGUAAACCAAA | 65.3 ± 12 | 73.2 ± 7.9 | 54.5 ± 3.6 | 94.4 ± 6.9
UUGUGGAACAUGUAAACCAAA | 88.5 ± 8.4 | 62.9 ± 2.9 | 39.6 ± 4.6 | 40.3 ± 1.1
UUGUGGCACAUGUAAACCAAA | 15.1 ± 5.5 | 56.7 ± 13 | 20.1 ± 2.6 | 58.4 ± 12
UUGUGGGACAUGUAAACCAAA | 34.6 ± 6.6 | 46 ± 4.1 | 13.1 ± 0.75 | 24.7 ± 7.2
UUGUGGUACAUGUAAACCAAA | 5.94 ± 1.6 | 56.6 ± 4.1 | 40.5 ± 5.5 | 20.1 ± 3.3
UUGUGUAACAUGUAAACCAAA | 87.7 ± 5.2 | 75 ± 15 | 70.4 ± 3.6 | 67.9 ± 3.2
UUGUGUCACAUGUAAACCAAA | 21.9 ± 2.4 | 54.5 ± 13 | 50.7 ± 5.9 | 24.3 ± 6.3
UUGUGUGACAUGUAAACCAAA | 46.5 ± 5.4 | 51.2 ± 6.5 | 41.2 ± 2.7 | 87.3 ± 16
UUGUGUUACAUGUAAACCAAA | 72.5 ± 5.9 | 71.9 ± 13 | 73.8 ± 3.9 | 102 ± 14

Sequence | cell viability [1] [%] | cell viability [2] [%] | cell viability [3] [%] | cell viability [4] [%]
UUGUUAAACAUGUAAACCAAA | 53.6 ± 6.3 | 68 ± 5.8 | 71.2 ± 8 | 61.4 ± 4.9
UUGUUACACAUGUAAACCAAA | 76.7 ± 18 | 41.5 ± 11 | 29.5 ± 2.7 | 84.2 ± 4.5
UUGUUAGACAUGUAAACCAAA | 9.9 ± 2.9 | 68.4 ± 8.1 | 58.7 ± 2.9 | 54.9 ± 8.3
UUGUUAUACAUGUAAACCAAA | 53.6 ± 6 | 63.9 ± 4.3 | 71.7 ± 7.3 | 50.6 ± 14
UUGUUCAACAUGUAAACCAAA | 91.4 ± 8.5 | 72.6 ± 17 | 79.1 ± 7.9 | 35.7 ± 3.4
UUGUUCCACAUGUAAACCAAA | 17.9 ± 3.1 | 45 ± 6.2 | 18 ± 1.5 | 11.9 ± 1.6
UUGUUCGACAUGUAAACCAAA | 99.1 ± 3.4 | 68.2 ± 6.2 | 71.4 ± 6.5 | 39.7 ± 4.9
UUGUUCUACAUGUAAACCAAA | 82.1 ± 13 | 69.2 ± 10 | 58.5 ± 4.4 | 23.4 ± 8
UUGUUGAACAUGUAAACCAAA | 68.6 ± 2.9 | 57 ± 4.9 | 50.7 ± 1.7 | 27.8 ± 11
UUGUUGCACAUGUAAACCAAA | 53.3 ± 6.8 | 76.3 ± 6.1 | 81.6 ± 8 | 42.1 ± 10
UUGUUGGACAUGUAAACCAAA | 11.8 ± 2.4 | 42.6 ± 8.1 | 62.4 ± 6 | 8.03 ± 2.4
UUGUUGUACAUGUAAACCAAA | 81.1 ± 7.1 | 51.5 ± 4 | 46.7 ± 6 | 36.4 ± 8.5
UUGUUUAACAUGUAAACCAAA | 98.3 ± 9.5 | 78.8 ± 12 | 82.5 ± 2.2 | 91.6 ± 7.3
UUGUUUCACAUGUAAACCAAA | 89.2 ± 7 | 64.1 ± 8.2 | 73.3 ± 7 | 95.8 ± 13
UUGUUUGACAUGUAAACCAAA | 51.6 ± 4.2 | 59.4 ± 1.2 | 56.9 ± 4.1 | 88.9 ± 29
UUGUUUUACAUGUAAACCAAA | 92.4 ± 11 | 67.9 ± 4.2 | 88.7 ± 1.7 | 104 ± 6.2
UUUAAAAACAUGUAAACCAAA | 97.5 ± 1.3 | 81.2 ± 8.3 | 94.7 ± 2.8 | 92.4 ± 7.2
UUUAAACACAUGUAAACCAAA | 105 ± 3.7 | 82 ± 18 | 104 ± 4.4 | 92.3 ± 5.6
UUUAAAGACAUGUAAACCAAA | 104 ± 2.6 | 87.8 ± 6.3 | 99.4 ± 8.8 | 73.4 ± 8.3
UUUAAAUACAUGUAAACCAAA | 95.7 ± 2 | 68.8 ± 5.1 | 96.8 ± 6.4 | 101 ± 7.8

Sequence | cell viability [1] [%] | cell viability [2] [%] | cell viability [3] [%] | cell viability [4] [%]
UUUAACAACAUGUAAACCAAA | 102 ± 9.5 | 85.4 ± 4.1 | 99.7 ± 7.3 | 93.6 ± 4.9
UUUAACCACAUGUAAACCAAA | 58.2 ± 4.1 | 50.1 ± 1.8 | 71.4 ± 5.4 | 74.4 ± 11
UUUAACGACAUGUAAACCAAA | 108 ± 12 | 86.7 ± 7.4 | 102 ± 7 | 91.4 ± 12
UUUAACUACAUGUAAACCAAA | 80.8 ± 4.9 | 73.3 ± 4.1 | 83.4 ± 8.8 | 75.3 ± 1.5
UUUAAGAACAUGUAAACCAAA | 92.8 ± 5.2 | 78.4 ± 17 | 102 ± 3.2 | 87 ± 13
UUUAAGCACAUGUAAACCAAA | 73.2 ± 4.8 | 62.9 ± 3.7 | 100 ± 11 | 75.6 ± 15
UUUAAGGACAUGUAAACCAAA | 99.4 ± 1.8 | 81.2 ± 6 | 92.9 ± 6.6 | 91.7 ± 14
UUUAAGUACAUGUAAACCAAA | 88.1 ± 7.4 | 63.8 ± 7.9 | 34.8 ± 8.1 | 69.3 ± 11
UUUAAUAACAUGUAAACCAAA | 95.4 ± 3.1 | 86.2 ± 4.5 | 96.3 ± 9.7 | 81.6 ± 8.3
UUUAAUCACAUGUAAACCAAA | 97.6 ± 4 | 77.9 ± 9.5 | 88.9 ± 13 | 88.9 ± 6.1
UUUAAUGACAUGUAAACCAAA | 91.7 ± 12 | 76.3 ± 5.5 | 96.5 ± 5.6 | 84.1 ± 10
UUUAAUUACAUGUAAACCAAA | 98.3 ± 6.1 | 80.3 ± 12 | 96 ± 7.8 | 85.7 ± 15
UUUACAAACAUGUAAACCAAA | 94.6 ± 5.1 | 78.3 ± 8.8 | 100 ± 7.6 | 94.6 ± 3.4
UUUACACACAUGUAAACCAAA | 88.7 ± 1.5 | 86.4 ± 11 | 100 ± 6.7 | 78.5 ± 3.1
UUUACAGACAUGUAAACCAAA | 107 ± 7.7 | 105 ± 14 | 98.2 ± 7.9 | 82 ± 15
UUUACAUACAUGUAAACCAAA | 104 ± 6.2 | 80.1 ± 9.2 | 99.4 ± 1.8 | 92.2 ± 2.8
UUUACCCACAUGUAAACCAAA | 39.6 ± 7.5 | 83 ± 18 | 70.2 ± 4.6 | 52.5 ± 8.7
UUUACCGACAUGUAAACCAAA | 98.3 ± 14 | 97.7 ± 4.2 | 93.2 ± 4.3 | 96.5 ± 5.7
UUUACCUACAUGUAAACCAAA | 75.4 ± 6.1 | 73.2 ± 8.3 | 91.3 ± 3.2 | 81.3 ± 7.3
UUUACGAACAUGUAAACCAAA | 102 ± 3.7 | 95.7 ± 9.8 | 98 ± 5.8 | 74.8 ± 8.6
